# Source: PubChem BioAssay AID2147 (National Center for Advancing Translational Sciences (NCATS), 2009)
# The campaign covered roughly 230,000 compounds. About 3,600 (1.6%) were called active. Inconclusive means that the source gave no clear call. Such entries were picked first, then a sample of the others. The call rests on the fitted dose curve; in most records, active means well fitted inhibition curve with a large enough effect (not every such curve was filed as active); inconclusive means small, poorly fitted or top-dose-only effect, or another doubt; inactive means no such curve, though single readings can be large or run the other way. Potencies of inconclusive entries are doubtful fits and often do not repeat.
# Target: Lysine-specific demethylase 4E (Homo sapiens) (UniProt B2RXH2)
# Chain of UniProt B2RXH2 (B2RXH2 whole entry, looked up, the tested form may be a part): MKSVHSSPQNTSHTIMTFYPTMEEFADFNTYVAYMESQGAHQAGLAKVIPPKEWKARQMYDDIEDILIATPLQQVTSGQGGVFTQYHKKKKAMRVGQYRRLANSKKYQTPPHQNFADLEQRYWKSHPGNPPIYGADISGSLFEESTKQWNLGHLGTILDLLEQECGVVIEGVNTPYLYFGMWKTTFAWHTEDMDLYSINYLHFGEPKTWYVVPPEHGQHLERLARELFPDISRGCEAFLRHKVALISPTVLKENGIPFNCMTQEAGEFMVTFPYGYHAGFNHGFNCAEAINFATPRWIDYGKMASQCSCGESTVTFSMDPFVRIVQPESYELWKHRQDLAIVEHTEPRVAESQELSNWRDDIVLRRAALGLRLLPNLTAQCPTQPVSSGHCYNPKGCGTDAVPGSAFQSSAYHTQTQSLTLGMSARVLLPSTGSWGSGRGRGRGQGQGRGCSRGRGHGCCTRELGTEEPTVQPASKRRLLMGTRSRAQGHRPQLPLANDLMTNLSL
# Assay: qHTS Assay for Inhibitors of Human Jumonji Domain Containing 2E (JMJD2E)
# Details: JMJD2E catalytic domain, FDH-coupled NADH fluorescence (FDH is formaldehyde dehydrogenase); series mostly up to 57.1 µM
# Further: nearly all actives have a fitted effect of over 50% in size.
# Potency means the concentration at half of the fitted maximal effect; tags describe the fitted curve by direction and shape.
row,SMILES,Potency
1,Cc1ccc(S(=O)(=O)N2CCOCC2)cc1C(=O)Nc1c(C)n(C)n(-c2ccccc2)c1=O,inactive
2,OCC1CCCN(C2CCN(Cc3nc(Cc4cccc(C(F)(F)F)c4)no3)CC2)C1 (stereo not drawn),inactive
3,CCCCn1c(NC(=O)c2ccccc2)c(C#N)c2nc3ccccc3nc21,"inconclusive: 39.8 µM [inhibitor, single point]"
4,COc1ccc(OC)c(C2C(C#N)=C(N)Oc3c2c(C)nn3-c2cccc(Cl)c2)c1 (stereo not drawn),"inconclusive: 20 µM [inhibitor, single point]"
5,O=C(O)c1ccc(COc2ccccc2/C=C2/NC(=O)N(c3cccc(Cl)c3)C2=O)cc1,"inconclusive: 35.5 µM [inhibitor, single point]"
6,Cc1cccc(-n2c(=O)c(C#N)cc3c(=O)n4ccccc4nc32)c1,"inconclusive: 3.16 µM [inhibitor, full curve]"
7,COc1cc2[nH]c(=O)n(CCC(=O)NCCC(C)C)c(=O)c2cc1OC,"inconclusive: 25.1 µM [inhibitor, partial curve]"
8,Cn1ncc2c(Nc3ccc(-c4ccccc4)cc3)ncnc21,"inconclusive: 31.6 µM [inhibitor, single point]"
9,COC(=O)c1sc2nc(C)cc(-c3ccccc3)c2c1N,"inconclusive: 28.2 µM [inhibitor, partial curve]"
10,N#Cc1ccccc1NC(=O)c1ccc(-c2ccccc2Cl)o1,"inconclusive: 35.5 µM [inhibitor, single point]"
11,CC(C)Cn1c(=O)[nH]c(=O)c2c(C(F)(F)F)cc(-c3ccccc3)nc21,"inconclusive: 22.4 µM [inhibitor, partial curve]"
12,CN(C)S(=O)(=O)c1ccc(N2CCCC2)c(C(=O)NC(c2ccccc2)c2ccccc2)c1,"inconclusive: 35.5 µM [inhibitor, single point]"
13,O=C(NCCc1ccccc1F)C(=O)Nc1nccs1,"inconclusive: 35.5 µM [inhibitor, single point]"
14,Cc1ccc(CNC2=NCCCCC2)n1C,"inconclusive: 31.6 µM [inhibitor, single point]"
15,CC(C)[C@H](NC(=O)c1cccc(S(=O)(=O)N2CCOCC2)c1)C(=O)Nc1nccs1,"inconclusive: 10 µM [inhibitor, single point]"
16,Cc1cccc2cc(C#N)c(NCCNC(=O)NC3CCCCC3)nc12,"inconclusive: 3.98 µM [inhibitor, full curve]"
17,COc1cccc(C(=O)CN2CCN(S(=O)(=O)c3cccc([N+](=O)[O-])c3)CC2)c1,"inconclusive: 35.5 µM [inhibitor, single point]"
18,Cn1c(-c2cccc([N+](=O)[O-])c2)cnc1NCc1cccc([N+](=O)[O-])c1,inactive
19,CC(C)CCNC(=O)C(C)N(C(=O)c1snc(C(N)=O)c1N)c1cnc2ccccc2c1 (stereo not drawn),"inconclusive: 25.1 µM [inhibitor, single point]"
20,CC1(C)CC2CC(C)(CN2C(=O)COC(=O)Cn2[nH]c(=O)c3ccccc3c2=O)C1 (stereo not drawn),inactive
21,CCC(C)Cn1c(O)cc2nn(-c3nc4ccccc4s3)c(=O)c-2c1C (stereo not drawn),"inconclusive: 39.8 µM [inhibitor, single point]"
22,Cc1ccc(C(=O)CNc2ccc(C)c(Cl)c2)cc1,inactive

row,SMILES,Potency
1,COc1ccc(C(=O)Nc2cc(=O)[nH]c3ncnn23)cc1,inactive
2,CCN(CC)c1ccc(NC(=O)CCCCCN2C(=O)c3ccccc3C2=O)cc1,inactive
3,COC(=O)c1cc(OC)c(OC)cc1NC(=O)Cn1nnc(-c2ccccc2Cl)n1,"inconclusive: 35.5 µM [inhibitor, partial curve]"
4,NS(=O)(=O)c1ccc(N/N=C/c2cn(-c3ccccc3)nc2-c2ccccc2)c([N+](=O)[O-])c1,inactive
5,Cc1cc(-c2cccs2)c2c(n1)sc1c(=O)[nH]c(=O)[nH]c12,"inconclusive: 35.5 µM [inhibitor, partial curve]"
6,O=C(CSc1nc2ccccc2[nH]1)N/N=C/c1ccncc1,inactive
7,c1ccc(-n2nc3c(ccc4cnnc43)[nH]2)cc1,"inconclusive: 20 µM [inhibitor, partial curve]"
8,C=CC1=C(C)C2=Cc3c(C=C)c(C)c4[n]3[Sn+2][n]3c(c(C)c(CCC(=O)O)c3=CC3=NC(=C4)C(C)=C3CCC(=O)O)=CC1=N2,"inconclusive: 35.5 µM [inhibitor, single point]"
9,Cc1ccc(-c2cccc(C3CC=CC4C3C(=O)N(Cc3ccccc3)C4c3cc(C)ccc3F)c2)cc1 (stereo not drawn),inactive
10,CN(C)/C=N/c1cc(=O)[nH]c(=O)n1CC1CC1,inactive
11,O=C(NC(NC(=S)Nc1ccc(Cl)c(Cl)c1)C(Cl)(Cl)Cl)c1ccco1 (stereo not drawn),inactive
12,CCc1c(C)sc(NC(=O)c2cc(-c3cc(OC)ccc3OC)on2)c1C#N,"inconclusive: 6.31 µM [inhibitor, single point]"
13,Cc1ccc(NS(=O)(=O)c2ccc(C(=O)N3CCN(c4ncccn4)CC3)cc2)cc1,"inconclusive: 28.2 µM [inhibitor, single point]"
14,CN(Cc1ccccc1)c1ccc2nnc(-c3ccccc3)n2n1,"inconclusive: 35.5 µM [inhibitor, single point]"
15,C[n+]1ccc(/C=C/c2ccc(Br)cc2)cc1,"inconclusive: 28.2 µM [inhibitor, partial curve]"
16,COc1ccc(Nc2oc(-c3ccccc3F)nc2C#N)cc1,"inconclusive: 12.6 µM [inhibitor, partial curve]"
17,O=[N+]([O-])c1cc(-c2nnc(Nc3ccc(O)cc3)c3ccccc23)ccc1N1CCOCC1,inactive
18,CN(C)c1ccc(-c2cncnc2NCc2ccccc2)cc1,"inconclusive: 22.4 µM [inhibitor, partial curve]"
19,N#Cc1ccc(CSc2nnc3[nH]c(=O)cc(N)n23)cc1,"inconclusive: 3.16 µM [inhibitor, single point]"
20,Cc1cc(/C=N/n2cnnc2)c(C)n1-c1cccc(Cl)c1,inactive
21,O=C(/C=C/c1ccco1)N(c1ccccn1)c1ccccn1,"inconclusive: 28.2 µM [inhibitor, single point]"
